Laboratory results from the CheMixHub viscosity set.
Where “and” joins values, the source holds several entries; their conditions need not be identical. Equal values may be shown once. This continues a long series; more values of the same kind are listed elsewhere.

CCCCn1cc[n+](C)c1.F[P-](F)(F)(F)(F)F
viscosity
Conditions	298.15 K	299.15 K	301.15 K	302.15 K	303.15 K	304.15 K	305.15 K	307.15 K
101 kPa	278.6 mPa·s and 254.3 mPa·s	259 mPa·s	232 mPa·s	218.4 mPa·s	206 mPa·s	194.8 mPa·s	183.8 mPa·s	164.5 mPa·s
101.3 kPa	270 mPa·s	–	–	–	–	–	–	–
